In PubChem BioAssay AID624417 (National Center for Advancing Translational Sciences (NCATS), 2012):
Out of some 410,000 compounds screened, about 6,400 (1.6%) were called active. This list was built around the results that the source calls inconclusive (neither active nor inactive); the mix of calls is not that of the screen. Calls come from the whole dose curve; as a rule, active = well fitted inhibition curve with a large enough effect; inconclusive = small, poorly fitted or top-dose-only effect; inactive = no such curve, though single readings can be large or run the other way. Potencies of inconclusive entries are left out as doubtful fits.

Molecular target: Glucagon-like peptide 1 receptor (Homo sapiens) (UniProt P43220)
Sequence of UniProt P43220 (P43220 whole entry, looked up): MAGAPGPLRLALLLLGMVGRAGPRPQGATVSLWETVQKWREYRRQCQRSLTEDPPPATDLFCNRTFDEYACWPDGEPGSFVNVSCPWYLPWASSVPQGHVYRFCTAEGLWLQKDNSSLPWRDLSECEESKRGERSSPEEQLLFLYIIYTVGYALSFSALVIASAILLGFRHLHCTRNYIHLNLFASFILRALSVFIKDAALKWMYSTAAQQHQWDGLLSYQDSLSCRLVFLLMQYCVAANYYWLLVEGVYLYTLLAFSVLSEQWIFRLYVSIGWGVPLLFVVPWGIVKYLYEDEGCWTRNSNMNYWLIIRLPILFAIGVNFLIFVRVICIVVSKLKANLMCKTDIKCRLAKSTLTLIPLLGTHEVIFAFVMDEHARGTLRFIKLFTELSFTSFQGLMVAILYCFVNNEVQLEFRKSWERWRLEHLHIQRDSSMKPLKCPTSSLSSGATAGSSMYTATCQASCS
Test: qHTS of GLP-1 Receptor Inverse Agonists (Inhibition Mode); note: nearly all actives have a fitted effect of over 55% in size
Settings: HEK293 GLP-1R CRE-luciferase, luminescence, 24 h, GLP-1R form is constitutively active; activity change, negative = inhibition: at 38.3 µM (top of the series) unless noted
In short: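 Cells are plated, allowed 12 hours at 37 deg C, then treated with compounds for 24 hr before luciferase detection reagent is added and luminescence is read after 12 min at room temperature. The HEK293 line carries constitutively active GLP-1R with a cAMP-responsive reporter.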
% is set by controls: 0 for no effect and ±100 for the full control effect; potency is the fitted concentration of half-maximal effect; tags give direction and shape of the fitted curve.

SMILES | Potency | activity change, negative = inhibition
CCOC(=O)c1[nH]c2ccccc2c1NC(=O)c1cc(Cl)ccc1Cl | inconclusive [inhibitor, partial curve, poor fit] | 
CCCCC(=O)N(C)c1c(CC)nc2c(OCc3ccc(Cl)cc3Cl)cccn12 | inconclusive [inhibitor, partial curve, poor fit] | 
Nc1nonc1-n1nnc(C(=O)N/N=C\c2cccc(Cl)c2)c1CN1CCOCC1 | inconclusive [inhibitor, single point] | 
O=C(CCC(=O)Nc1cccc(Cl)c1)N/N=C/c1cc([N+](=O)[O-])ccc1O |  | inactive: -17.1% [at 7.66 µM]
CCCCCCSc1cc(-c2nc3ccc(C)cn3c2NCc2ccccc2)ccc1OC | inconclusive [inhibitor, partial curve, poor fit] | 
COc1ccc(CNC(=O)CCCCCn2c(=O)[nH]c3ccccc3c2=O)cc1 |  | inactive: 7.63%
Fc1ccc(-c2nc3c(-c4ccccc4)cnn3cc2CCN2CCOCC2)cc1 | inconclusive [inhibitor, single point] | 
O=C(c1cc[n+]([O-])cc1)N1CCc2c([nH]c3ccccc23)C1c1ccccc1Cl (configuration not stated) | inconclusive [inhibitor, single point] | 
CCc1cc(C(=O)N2CCN(c3ccccc3OC)CC2)sc1C | inconclusive [inhibitor, partial curve, poor fit] | 
C=CCn1c(CSc2ccc(C)cc2)n[nH]c1=S | inconclusive [inhibitor, partial curve, poor fit] | 
O=C(Nc1ccccc1)C(=O)c1cn(CC(=O)N2CCCCC2)c2ccccc12 | inconclusive [inhibitor, single point] | 
CCc1cccc(NC(=O)Cn2c(C(=O)OC)cc3occc32)c1 |  | inactive: 1.74%
O=C(CN1CCN(c2ccc(Cl)cc2)CC1)Nc1ccc(F)cc1 | inconclusive [inhibitor, single point] | 
O=C(CSc1nc2ccccc2c(=O)n1-c1ccccc1F)Nc1ccc2c(c1)CCC2 | inconclusive [inhibitor, partial curve, poor fit] | 
O=C(CNc1cccc(C(F)(F)F)c1)N/N=C/C1CCCCC1 | inconclusive [inhibitor, single point] | 
Cc1ccc(-n2c(SCC(=O)Nc3ccc(Cl)cc3)nc(O)cc2=O)cc1 | inconclusive [inhibitor, partial curve, poor fit] | 
O=C(CCn1c(=S)[nH]c2ccccc2c1=O)N1CCOCC1 |  | inactive: 5.09%
COc1ccc(S(=O)(=O)N2C[C@H]3CON(C)[C@H]3C[C@H]2c2ccc(-c3cccc(F)c3)cc2)cc1 | inconclusive [inhibitor, partial curve, poor fit] | 
C/C(=N\NC(=O)c1cccc(Cl)c1)C1C(=O)c2ccccc2C1=O | inconclusive [inhibitor, partial curve, poor fit] | 
O=C(CN1CCN(c2nc(-c3ccccc3)cs2)CC1)Nc1ccc2c(c1)OCO2 | inconclusive [inhibitor, single point] | 
COc1ccc(/C=N/n2cnc3c([nH]c4ccc(C)cc43)c2=O)cc1CN1CCCC1 | inconclusive [inhibitor, partial curve, poor fit] | 

SMILES | Potency | activity change, negative = inhibition
O=C(OCC(=O)C12CC3CC(CC(C3)C1)C2)c1cccnc1Cl | inconclusive [inhibitor, full curve, poor fit] | 
COc1ccccc1CNC(=O)c1cc2sccc2n1Cc1ccc(F)cc1 | inconclusive [inhibitor, partial curve, poor fit] | 
NC(=S)N/N=C/c1ccccc1 |  | inactive: 11.4%
O=C(CSc1nnc(-c2cccc(F)c2)o1)Nc1nncs1 |  | inactive: 34.9%
CCOC(=O)Cn1c(=O)c2c(nc(N3CCCCC3)n2Cc2ccccc2)n(C)c1=O | inconclusive [inhibitor, full curve, poor fit] | 
Cc1cc(OCC(=O)O/N=C(\N)Cc2cccs2)ccc1Br | inconclusive [inhibitor, partial curve, poor fit] | 
Cc1cccc(N2CCN(C(=O)c3ccc4ncsc4c3)CC2)c1C | inconclusive [inhibitor, full curve] | 
Fc1ccc(CNc2nc(-c3ccco3)cc(C(F)(F)F)n2)cc1 | inconclusive [inhibitor, single point] | 
CC(C)CN1C(=O)C(=O)N(CC(=O)NCc2ccc3c(c2)OCO3)C1=O |  | inactive: -6.39%
CC(C)Cc1cc(C(=O)N(C)C2CCCN(Cc3ccccc3F)C2)n(C)n1 (configuration not stated) | inconclusive [inhibitor, single point] | 
COc1ccc(Br)cc1CNC(=O)CCCn1c(=O)c2cccn2c2cccnc21 |  | inactive: 2.88%
Cc1cccc(CC(Cc2nc3ccccc3[nH]2)c2nc3ccccc3[nH]2)c1 (configuration not stated) | inconclusive [inhibitor, single point] | 
O=C(NCc1cccnc1)C1CCCN(S(=O)(=O)c2ccccc2)C1 (configuration not stated) | inconclusive [inhibitor, partial curve] | 
CCN(CC)CCCNc1oc(/C=C/c2ccccc2)nc1C#N | inconclusive [inhibitor, single point] | 
O=c1c2ccccc2nc(/C=C/c2ccc([N+](=O)[O-])cc2)n1CCCO | inconclusive [inhibitor, partial curve, poor fit] | 
O=S(=O)(c1ccc(F)cc1)n1ccc(-c2cccc(OCc3c(F)cccc3Cl)c2)n1 | inconclusive [inhibitor, single point] | 
COc1ccccc1N1CCN(C(=O)c2cc(-c3ccco3)on2)CC1 | inconclusive [inhibitor, single point] | 
Cc1cc(C(=O)NCC(=O)OC(C(=O)Nc2cc(C(F)(F)F)ccc2Cl)c2ccccc2)ccc1[N+](=O)[O-] (configuration not stated) | inconclusive [inhibitor, single point] | 
O=C(CSc1nnc(-c2ccc(O)cc2)o1)Nc1ccccc1 | inconclusive [inhibitor, single point] | 
CCOC(=O)N1CCN(c2c(NCc3ccccc3Cl)c(=O)c2=O)CC1 | inconclusive [inhibitor, full curve] | 
CC1CCCCN1C(=O)c1cc(-c2ccc(Cl)c(Cl)c2)on1 (configuration not stated) | inconclusive [inhibitor, single point] | 

SMILES | Potency | activity change, negative = inhibition
Cc1ccccc1-c1nnn(Cc2ccc(F)cc2Cl)n1 | inconclusive [inhibitor, single point] | 
O=C(c1ccc2ccccc2c1)C1CCCN(C(=O)c2noc3c2CCCC3)C1 (configuration not stated) | inconclusive [inhibitor, single point] | 
OC(c1ccc(F)c(F)c1)c1nc(-c2csc3ccccc23)cs1 (configuration not stated) | inconclusive [inhibitor, partial curve, poor fit] | 
Cc1ccc(CCNS(=O)(=O)c2ccc3c(c2)NC(=O)CCS3)cc1 | inconclusive [inhibitor, partial curve, poor fit] | 
CCOC(=O)CSc1nnc(-c2nnc(SCC(=O)OCC)n2CC)n1CC |  | inactive: 7.49%
CCSc1ccccc1C(=O)n1nnc2ccccc21 |  | inactive: 0%
O=C(Nc1ccc(F)c(Cl)c1)C1CCCN(c2ncnc3onc(-c4ccc(F)cc4)c23)C1 (configuration not stated) | inconclusive [inhibitor, single point] | 
Cc1cccc(C(=O)OCC(=O)N2CC(C)CC(C)C2)c1C (configuration not stated) | inconclusive [inhibitor, partial curve, poor fit] | 
CCn1c(=O)cc(SCC(=O)N2CCN(C3CCCCC3)CC2)c2ccccc21 | inconclusive [inhibitor, single point] | 
Cc1ccc(Cl)cc1N1CCN(S(=O)(=O)c2c(C)[nH]c(C)c2C(=O)N2CCCCC2)CC1 | inconclusive [inhibitor, partial curve, poor fit] | 
CN(Cc1ccccc1F)c1nc(-c2cccs2)nc2ccccc12 | inconclusive [inhibitor, single point] | 
COc1cccc(-n2c(SCC(=O)Nc3ccc4c(c3)CCC4)nc3ccccc3c2=O)c1 | inconclusive [inhibitor, partial curve] | 
CCOc1ccc(C(=O)OCC(=O)NC(C)C)cc1 |  | inactive: 3.2%
O=C(NC1CCN(Cc2ccc(Cl)cc2)CC1)c1cn(-c2ccccc2)nc1-c1cccnc1 | inconclusive [inhibitor, single point] | 
Cc1ccc(C)c(N2CCN(C(=O)CN3C(=O)COc4ccc(S(=O)(=O)N5CCOCC5)cc43)CC2)c1 |  | inactive: 3.93%
Cc1ccc(C)c(CNC(=O)C2CCCCN2S(=O)(=O)c2ccc(F)cc2)c1 (configuration not stated) | inconclusive [inhibitor, partial curve, poor fit] | 
COc1cc(Cl)ccc1OCc1cc(C(=O)N2CC[C@@H]3CCCC[C@H]3C2)no1 | inconclusive [inhibitor, single point] | 
COc1ccc(CCNCCC(=O)Nc2c(C)cc(C)cc2C)cc1OC | inconclusive [inhibitor, partial curve, poor fit] | 
COc1ccc(CNC(=S)Nc2cc(C)ccc2C)cc1 | inconclusive [inhibitor, single point] | 
CCN(c1cccc(C)c1)C(CNS(=O)(=O)c1ccccc1)c1ccccc1 (configuration not stated) | inconclusive [inhibitor, partial curve, poor fit] | 
